Measurements reported in PubChem BioAssay AID1845200 (Molecular Pharmacology Branch, DTP, NCI, 2023).
Some entries of the source have several records that differ or are many. The list is limited to them. An entry can have further records. Results that share an entry are repeats in other runs, samples, wells, individuals or studies. Dates in brackets are months of testing.

System: ASPS-1 complex tumor spheroids, viability
Test: Anticancer human tumor ASPS-1 cell line growth inhibition;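 further: spheroids exposed to agents for 7 days after 3 days of growth; 100% = DMSO vehicle treated spheroids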
Settings: compound alone 0.3 µM; stronger effect = lower value
Text: Multicellular complex tumor spheroid response to DNA repair inhibitors in combination with DNA-damaging drugs
This study explores the anticancer activities of DNA-damaging drugs and inhibitors of DNA damage repair, both as single agents and in combinations. Complex tumor spheroids comprised of malignant cells, endothelial cells and mesenchymal stem cells served as an in vitro model for human solid tumors. This model system incorporates physiologically relevant features and patient-derived or established malignant cell lines with clinically relevant genetic alterations from many tumor types. Twenty-six patient-derived or established malignant cell lines were evaluated representing sarcoma, melanoma, small cell lung cancer (SCLC), non-small cell lung cancer (NSCLC), as well as bladder, ovarian and pancreatic cancers. The concentration ranges selected for each drug and investigational agent were based upon clinically achievable concentrations if the clinical Cmax of the agent was known.
Compounds. […] If the clinical Cmax for an agent had not been determined, the highest concentration tested was 10 microM. […]

Structure (SMILES): CC[C@@]1(O)C(=O)OCc2c1cc1n(c2=O)Cc2cc3c(CN(C)C)c(O)ccc3nc2-1
- viability, T/C: 47.8, 43.3, 50.7, 50.2, 52% [2019-11] and 73.8, 70.2, 65.3, 60.7, 64.4% [2019-12]
